{"source": "the supplement of paper PMC10477191", "test_system": "Drosophila virilis", "assay": "attraction index (odor vs solvent trap) (index (-1 to 1)); higher = more attraction to the odorant", "settings": "odor dose: 10^-2 dilution in mineral oil", "experimental": "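Two-choice trap assay (odor 10^-2 in mineral oil vs solvent, 20 flies, 24 h) run at test temperatures of 10-35 °C and 70% humidity, with flies reared at 18 or 25 °C. Attraction index = (O-C)/n; 10 replicates.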", "key": {"[1]": {"settings": "test temperature 15 °C, rearing temperature 18 °C"}, "[2]": {"settings": "test temperature 15 °C, rearing temperature 25 °C"}, "[3]": {"settings": "test temperature 20 °C, rearing temperature 18 °C"}, "[4]": {"settings": "test temperature 20 °C, rearing temperature 25 °C"}, "[5]": {"settings": "test temperature 25 °C, rearing temperature 18 °C"}, "[6]": {"settings": "test temperature 25 °C, rearing temperature 25 °C"}, "[7]": {"settings": "test temperature 30 °C, rearing temperature 18 °C"}, "[8]": {"settings": "test temperature 30 °C, rearing temperature 25 °C"}}, "note": "± gives the standard deviation of the averaged measurements. Some of the results follow.", "data": [{"smiles": "COC(=O)c1ccccc1O", "note": "[methyl salicylate]", "values": [{"measurement": "attraction index", "setting": "[1]", "value": "-0.039 ± 0.51"}, {"measurement": "attraction index", "setting": "[2]", "value": "-0.203 ± 0.41"}, {"measurement": "attraction index", "setting": "[3]", "value": "0.0144 ± 0.42"}, {"measurement": "attraction index", "setting": "[4]", "value": "0.0178 ± 0.38"}, {"measurement": "attraction index", "setting": "[5]", "value": "-0.0474 ± 0.18"}, {"measurement": "attraction index", "setting": "[6]", "value": "0.229 ± 0.36"}, {"measurement": "attraction index", "setting": "[7]", "value": "0.0526 ± 0.44"}, {"measurement": "attraction index", "setting": "[8]", "value": "0.139 ± 0.37"}]}, {"smiles": "COc1ccccc1O", "note": "[guaiacol]", "values": [{"measurement": "attraction index", "setting": "[1]", "value": "-0.474 ± 0.37"}, {"measurement": "attraction index", "setting": "[2]", "value": "-0.695 ± 0.22"}, {"measurement": "attraction index", "setting": "[3]", "value": "-0.311 ± 0.43"}, {"measurement": "attraction index", "setting": "[4]", "value": "-0.183 ± 0.47"}, {"measurement": "attraction index", "setting": "[5]", "value": "-0.622 ± 0.29"}, {"measurement": "attraction index", "setting": "[6]", "value": "-0.622 ± 0.22"}, {"measurement": "attraction index", "setting": "[7]", "value": "-0.427 ± 0.31"}, {"measurement": "attraction index", "setting": "[8]", "value": "-0.677 ± 0.3"}]}, {"smiles": "CC(C)OC(=O)c1ccccc1", "note": "[isopropyl benzoate]", "values": [{"measurement": "attraction index", "setting": "[1]", "value": "-0.153 ± 0.58"}, {"measurement": "attraction index", "setting": "[3]", "value": "-0.0903 ± 0.3"}, {"measurement": "attraction index", "setting": "[5]", "value": "-0.205 ± 0.33"}, {"measurement": "attraction index", "setting": "[7]", "value": "0.0101 ± 0.29"}]}]}
